{
  "source": "the supplement of paper PMC8728848",
  "assay_in_all_cases": "glycan array binding signal (z-score within array); higher = stronger binding",
  "conditions_in_all_cases": "glycan notation: IUPAC condensed, linker removed",
  "key": {"[1]": {"biological_target": "Neu5Ac(a2-3)Gal6S(b1-4)[Fuc(a1-3)]GlcNAc", "procedure,_shortened": "(§1)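 The Consortium for Functional Glycomics database supplied 3228 glycan arrays, of which those lacking an available protein sequence were dropped. The binding signal, a within-array Z-score, was averaged across arrays of the same protein sequence and across linkers. Negative scores can be read as non-binding.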"}, "Neu5Ac(a2-3)GalNAc": {"biological_target": "Neu5Ac(a2-3)GalNAc", "procedure,_shortened": "as §1"}, "[2]": {"biological_target": "Neu5Ac(a2-3)GalNAc(b1-4)GlcNAc", "procedure,_shortened": "as §1"}, "[3]": {"biological_target": "Neu5Ac(a2-3)[GalNAc(b1-4)]Gal(b1-4)Glc", "procedure,_shortened": "as §1"}, "[4]": {"biological_target": "Neu5Ac(a2-3)[GalNAc(b1-4)]Gal(b1-4)GlcNAc", "procedure,_shortened": "as §1"}, "[5]": {"biological_target": "Neu5Ac(a2-3)[GalNAc(b1-4)]Gal(b1-4)GlcNAc(b1-3)GalNAc", "procedure,_shortened": "as §1"}, "[6]": {"biological_target": "Neu5Ac(a2-3)[Neu5Ac(a2-6)]GalNAc", "procedure,_shortened": "as §1"}, "Neu5Ac(a2-6)Gal": {"biological_target": "Neu5Ac(a2-6)Gal", "procedure,_shortened": "as §1"}, "[7]": {"biological_target": "Neu5Ac(a2-6)Gal(b1-3)GlcNAc(b1-3)[Gal(b1-4)GlcNAc(b1-6)]Gal(b1-4)Glc", "procedure,_shortened": "as §1"}, "Neu5Ac(a2-6)Gal(b1-4)Glc": {"biological_target": "Neu5Ac(a2-6)Gal(b1-4)Glc", "procedure,_shortened": "as §1"}, "[8]": {"biological_target": "Neu5Ac(a2-6)Gal(b1-4)GlcNAc", "procedure,_shortened": "as §1"}, "[9]": {"biological_target": "Neu5Ac(a2-6)Gal(b1-4)GlcNAc(b1-2)Man", "procedure,_shortened": "as §1"}, "[10]": {"biological_target": "Neu5Ac(a2-6)Gal(b1-4)GlcNAc(b1-2)Man(a1-3)Man(b1-4)GlcNAc(b1-4)GlcNAc", "procedure,_shortened": "as §1"}, "[11]": {"biological_target": "Neu5Ac(a2-6)Gal(b1-4)GlcNAc(b1-2)Man(a1-3)[Gal(b1-4)GlcNAc(b1-2)Man(a1-6)]Man(b1-4)GlcNAc(b1-4)GlcNAc", "procedure,_shortened": "as §1"}, "[12]": {"biological_target": "Neu5Ac(a2-6)Gal(b1-4)GlcNAc(b1-2)Man(a1-3)[GlcNAc(b1-2)Man(a1-6)]Man(b1-4)GlcNAc(b1-4)GlcNAc", "procedure,_shortened": "as §1"}, "[13]": {"biological_target": "Neu5Ac(a2-6)Gal(b1-4)GlcNAc(b1-2)Man(a1-3)[GlcNAc(b1-4)][Neu5Ac(a2-6)Gal(b1-4)GlcNAc(b1-2)Man(a1-6)]Man(b1-4)GlcNAc(b1-4)GlcNAc", "procedure,_shortened": "as §1"}, "[14]": {"biological_target": "Neu5Ac(a2-6)Gal(b1-4)GlcNAc(b1-2)Man(a1-3)[Man(a1-6)]Man(b1-4)GlcNAc(b1-4)GlcNAc", "procedure,_shortened": "as §1"}, "[15]": {"biological_target": "Neu5Ac(a2-6)Gal(b1-4)GlcNAc(b1-2)Man(a1-3)[Neu5Ac(a2-3)Gal(b1-4)GlcNAc(b1-2)Man(a1-6)]Man(b1-4)GlcNAc(b1-4)GlcNAc", "procedure,_shortened": "as §1"}, "[16]": {"biological_target": "Neu5Ac(a2-6)Gal(b1-4)GlcNAc(b1-2)Man(a1-3)[Neu5Ac(a2-6)Gal(b1-4)GlcNAc(b1-2)Man(a1-6)]Man(b1-4)GlcNAc(b1-4)GlcNAc", "procedure,_shortened": "as §1"}, "[17]": {"biological_target": "Neu5Ac(a2-6)Gal(b1-4)GlcNAc(b1-2)Man(a1-3)[Neu5Ac(a2-6)Gal(b1-4)GlcNAc(b1-2)Man(a1-6)]Man(b1-4)GlcNAc(b1-4)[Fuc(a1-6)]GlcNAc", "procedure,_shortened": "as §1"}, "[18]": {"biological_target": "Neu5Ac(a2-6)Gal(b1-4)GlcNAc(b1-2)Man(a1-6)Man(b1-4)GlcNAc(b1-4)GlcNAc", "procedure,_shortened": "as §1"}, "[19]": {"biological_target": "Neu5Ac(a2-6)Gal(b1-4)GlcNAc(b1-2)Man(a1-6)[Gal(b1-4)GlcNAc(b1-2)Man(a1-3)]Man(b1-4)GlcNAc(b1-4)GlcNAc", "procedure,_shortened": "as §1"}, "[20]": {"biological_target": "Neu5Ac(a2-6)Gal(b1-4)GlcNAc(b1-2)Man(a1-6)[GlcNAc(b1-2)Man(a1-3)]Man(b1-4)GlcNAc(b1-4)GlcNAc", "procedure,_shortened": "as §1"}, "[21]": {"biological_target": "Neu5Ac(a2-6)Gal(b1-4)GlcNAc(b1-2)Man(a1-6)[Man(a1-3)]Man(b1-4)GlcNAc(b1-4)GlcNAc", "procedure,_shortened": "as §1"}, "[22]": {"biological_target": "Neu5Ac(a2-6)Gal(b1-4)GlcNAc(b1-2)[Neu5Ac(a2-6)Gal(b1-4)GlcNAc(b1-4)]Man(a1-3)[GlcNAc(b1-4)][Neu5Ac(a2-6)Gal(b1-4)GlcNAc(b1-2)[Neu5Ac(a2-6)Gal(b1-4)GlcNAc(b1-6)]Man(a1-6)]Man(b1-4)GlcNAc(b1-4)GlcNAc", "procedure,_shortened": "as §1"}, "[23]": {"biological_target": "Neu5Ac(a2-6)Gal(b1-4)GlcNAc(b1-2)[Neu5Ac(a2-6)Gal(b1-4)GlcNAc(b1-4)]Man(a1-3)[GlcNAc(b1-4)][Neu5Ac(a2-6)Gal(b1-4)GlcNAc(b1-4)Man(a1-6)]Man(b1-4)GlcNAc(b1-4)GlcNAc", "procedure,_shortened": "as §1"}, "[24]": {"biological_target": "Neu5Ac(a2-6)Gal(b1-4)GlcNAc(b1-2)[Neu5Ac(a2-6)Gal(b1-4)GlcNAc(b1-6)]Man(a1-6)[Neu5Ac(a2-6)Gal(b1-4)GlcNAc(b1-2)Man(a1-3)][GlcNAc(b1-4)]Man(b1-4)GlcNAc(b1-4)GlcNAc", "procedure,_shortened": "as §1"}, "[25]": {"biological_target": "Neu5Ac(a2-6)Gal(b1-4)GlcNAc(b1-3)Gal(b1-3)GlcNAc", "procedure,_shortened": "as §1"}, "[26]": {"biological_target": "Neu5Ac(a2-6)Gal(b1-4)GlcNAc(b1-3)Gal(b1-4)GlcNAc", "procedure,_shortened": "as §1"}, "[27]": {"biological_target": "Neu5Ac(a2-6)Gal(b1-4)GlcNAc(b1-3)Gal(b1-4)GlcNAc(b1-2)Man(a1-3)[Neu5Ac(a2-6)Gal(b1-4)GlcNAc(b1-3)Gal(b1-4)GlcNAc(b1-2)Man(a1-6)]GalNAc", "procedure,_shortened": "as §1"}, "[28]": {"biological_target": "Neu5Ac(a2-6)Gal(b1-4)GlcNAc(b1-3)Gal(b1-4)GlcNAc(b1-3)Gal(b1-4)GlcNAc", "procedure,_shortened": "as §1"}, "[29]": {"biological_target": "Neu5Ac(a2-6)Gal(b1-4)GlcNAc(b1-3)Gal(b1-4)GlcNAc(b1-3)Gal(b1-4)GlcNAc(b1-2)Man(a1-3)[Neu5Ac(a2-6)Gal(b1-4)GlcNAc(b1-3)Gal(b1-4)GlcNAc(b1-3)Gal(b1-4)GlcNAc(b1-2)Man(a1-6)]GalNAc", "procedure,_shortened": "as §1"}, "[30]": {"biological_target": "Neu5Ac(a2-6)Gal(b1-4)GlcNAc(b1-3)Gal(b1-4)GlcNAc(b1-3)GalNAc", "procedure,_shortened": "as §1"}, "[31]": {"biological_target": "Neu5Ac(a2-6)Gal(b1-4)GlcNAc(b1-3)Gal(b1-4)GlcNAc(b1-3)[Neu5Ac(a2-6)Gal(b1-4)GlcNAc(b1-3)Gal(b1-4)GlcNAc(b1-6)]GalNAc", "procedure,_shortened": "as §1"}, "[32]": {"biological_target": "Neu5Ac(a2-6)Gal(b1-4)GlcNAc(b1-3)Gal(b1-4)GlcNAc(b1-6)[Gal(b1-3)]GalNAc", "procedure,_shortened": "as §1"}, "[33]": {"biological_target": "Neu5Ac(a2-6)Gal(b1-4)GlcNAc(b1-3)Gal(b1-4)[Fuc(a1-3)]GlcNAc(b1-3)Gal(b1-4)[Fuc(a1-3)]GlcNAc", "procedure,_shortened": "as §1"}, "[34]": {"biological_target": "Neu5Ac(a2-6)Gal(b1-4)GlcNAc(b1-3)GalNAc", "procedure,_shortened": "as §1"}},
  "note": "The list shows a part of the results.",
  "data": [
    {"binder": "Epa3 (Candida glabrata), Q6VBI8_CANGB (protein) MGSSHHHHHHSSGLVPRGSHMNDLGFSLFEKRELSSQNPFGYPIGCSPQDVAIIPGLTMELYSYPIVSGTPPNCYDASYVDPEYPRTGYLKRKMVGKSTGVTGNLNYKYSVEKACMVKYGNLPAGYNYNEPLTVSNFTMILYGYFKAQTTGLHTFFVNADDLLYINFGAGNAFDCCKREDSKTKLGEYVAYDIWHVDSSKNKVSLFLEKDLYYPIRMFFNNIGKDSSLDLSFSVNGATDQISDFSGYLYSVPDQPDTCPAHIGYDTTCR", "values": [
      {"measurement": "glycan array binding signal (z-score)", "setting": "[1]", "value": -0.344},
      {"measurement": "glycan array binding signal (z-score)", "setting": "Neu5Ac(a2-3)GalNAc", "value": -0.308},
      {"measurement": "glycan array binding signal (z-score)", "setting": "[2]", "value": -0.373},
      {"measurement": "glycan array binding signal (z-score)", "setting": "[3]", "value": -0.327},
      {"measurement": "glycan array binding signal (z-score)", "setting": "[4]", "value": -0.199},
      {"measurement": "glycan array binding signal (z-score)", "setting": "[5]", "value": 0.265},
      {"measurement": "glycan array binding signal (z-score)", "setting": "[6]", "value": -0.458},
      {"measurement": "glycan array binding signal (z-score)", "setting": "Neu5Ac(a2-6)Gal", "value": -0.199},
      {"measurement": "glycan array binding signal (z-score)", "setting": "[7]", "value": -0.186},
      {"measurement": "glycan array binding signal (z-score)", "setting": "Neu5Ac(a2-6)Gal(b1-4)Glc", "value": -0.237},
      {"measurement": "glycan array binding signal (z-score)", "setting": "[8]", "value": -0.303},
      {"measurement": "glycan array binding signal (z-score)", "setting": "[9]", "value": -0.384},
      {"measurement": "glycan array binding signal (z-score)", "setting": "[10]", "value": -0.147},
      {"measurement": "glycan array binding signal (z-score)", "setting": "[11]", "value": -0.331},
      {"measurement": "glycan array binding signal (z-score)", "setting": "[12]", "value": -0.308},
      {"measurement": "glycan array binding signal (z-score)", "setting": "[13]", "value": -0.306},
      {"measurement": "glycan array binding signal (z-score)", "setting": "[14]", "value": -0.211},
      {"measurement": "glycan array binding signal (z-score)", "setting": "[15]", "value": -0.414},
      {"measurement": "glycan array binding signal (z-score)", "setting": "[16]", "value": -0.145},
      {"measurement": "glycan array binding signal (z-score)", "setting": "[17]", "value": -0.168},
      {"measurement": "glycan array binding signal (z-score)", "setting": "[18]", "value": -0.322},
      {"measurement": "glycan array binding signal (z-score)", "setting": "[19]", "value": -0.325},
      {"measurement": "glycan array binding signal (z-score)", "setting": "[20]", "value": -0.327},
      {"measurement": "glycan array binding signal (z-score)", "setting": "[21]", "value": -0.384},
      {"measurement": "glycan array binding signal (z-score)", "setting": "[22]", "value": -0.321},
      {"measurement": "glycan array binding signal (z-score)", "setting": "[23]", "value": -0.072},
      {"measurement": "glycan array binding signal (z-score)", "setting": "[24]", "value": -0.272},
      {"measurement": "glycan array binding signal (z-score)", "setting": "[25]", "value": -0.166},
      {"measurement": "glycan array binding signal (z-score)", "setting": "[26]", "value": -0.267},
      {"measurement": "glycan array binding signal (z-score)", "setting": "[27]", "value": 0.213},
      {"measurement": "glycan array binding signal (z-score)", "setting": "[28]", "value": -0.327},
      {"measurement": "glycan array binding signal (z-score)", "setting": "[29]", "value": 1.58},
      {"measurement": "glycan array binding signal (z-score)", "setting": "[30]", "value": -0.1},
      {"measurement": "glycan array binding signal (z-score)", "setting": "[31]", "value": 0.367},
      {"measurement": "glycan array binding signal (z-score)", "setting": "[32]", "value": 0.471},
      {"measurement": "glycan array binding signal (z-score)", "setting": "[33]", "value": -0.258},
      {"measurement": "glycan array binding signal (z-score)", "setting": "[34]", "value": 0.109}
    ]}
  ]
}
